In paper PMC9911399, “Two distinct binding modes provide the RNA-binding protein RbFox with extraordinary sequence specificity”:
Numbering of substitutions follows the chain as printed; changes in the protein carry UniProt numbers. The list shows a part of the results.

T1: RBFOX1 RRM RbFoxmut (Fox-RRM*) (Homo sapiens, UniProt Q9NWB1 109-208, R118D;E147R;N151S;E152T)
T1 sequence: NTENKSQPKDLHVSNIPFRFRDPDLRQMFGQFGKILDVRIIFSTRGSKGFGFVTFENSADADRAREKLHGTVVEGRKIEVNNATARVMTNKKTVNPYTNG

B1: AAACCCG (DNA:RNA)
RNA: GGGAGACCGGAAUUCAGAUUGUCCAAACCCGUUAAAUCCCGUCGUAGCCACCA
DNA 1: CAATCTGAATTCCGGTCTCCC
DNA 2: TGGTGGCTACGACGGGATT
B2: CACAUGG (DNA:RNA)
RNA: B1 RNA with A25C, A27C, C28A, C29U, C30G
DNA 1: CAATCTGAATTCCGGTCTCCC
DNA 2: TGGTGGCTACGACGGGATT
B3: CAUGGAA (DNA:RNA)
RNA: B1 RNA with A25C, A27U, C28G, C29G, C30A, G31A
DNA 1: CAATCTGAATTCCGGTCTCCC
DNA 2: TGGTGGCTACGACGGGATT
B4: GGGGUAU (DNA:RNA)
RNA: GGGAGACCGGAAUUCAGAUUGUCCGGGGUAUUUAAAUCCCGUCGUAGCCACCA
DNA 1: CAATCTGAATTCCGGTCTCCC
DNA 2: TGGTGGCTACGACGGGATT
B5: CAUUUUC (DNA:RNA)
RNA: B1 RNA with A25C, A27U, C28U, C29U, C30U, G31C
DNA 1: CAATCTGAATTCCGGTCTCCC
DNA 2: TGGTGGCTACGACGGGATT
B6: GUUCACG (DNA:RNA)
RNA: B1 RNA with A25G, A26U, A27U, C29A
DNA 1: CAATCTGAATTCCGGTCTCCC
DNA 2: TGGTGGCTACGACGGGATT
B7: ACGGUGC (DNA:RNA)
RNA: B4 RNA with G25A, G26C, A30G, U31C
DNA 1: CAATCTGAATTCCGGTCTCCC
DNA 2: TGGTGGCTACGACGGGATT
B8: GCGGCGU (DNA:RNA)
RNA: B4 RNA with G26C, U29C, A30G
DNA 1: CAATCTGAATTCCGGTCTCCC
DNA 2: TGGTGGCTACGACGGGATT
B9: CCGGGGA (DNA:RNA)
RNA: B4 RNA with G25C, G26C, U29G, A30G, U31A
DNA 1: CAATCTGAATTCCGGTCTCCC
DNA 2: TGGTGGCTACGACGGGATT
B10: GAUGUUU (DNA:RNA)
RNA: B4 RNA with G26A, G27U, A30U
DNA 1: CAATCTGAATTCCGGTCTCCC
DNA 2: TGGTGGCTACGACGGGATT
B11: CUUCCAU (DNA:RNA)
RNA: B1 RNA with A25C, A26U, A27U, C30A, G31U
DNA 1: CAATCTGAATTCCGGTCTCCC
DNA 2: TGGTGGCTACGACGGGATT
B12: GCGACUG (DNA:RNA)
RNA: B1 RNA with A25G, A26C, A27G, C28A, C30U
DNA 1: CAATCTGAATTCCGGTCTCCC
DNA 2: TGGTGGCTACGACGGGATT
B13: GGCGAAC (DNA:RNA)
RNA: B4 RNA with G27C, U29A, U31C
DNA 1: CAATCTGAATTCCGGTCTCCC
DNA 2: TGGTGGCTACGACGGGATT
B14: UUGACAA (DNA:RNA)
RNA: B4 RNA with G25U, G26U, G28A, U29C, U31A
DNA 1: CAATCTGAATTCCGGTCTCCC
DNA 2: TGGTGGCTACGACGGGATT
B15: CAGACCU (DNA:RNA)
RNA: B1 RNA with A25C, A27G, C28A, G31U
DNA 1: CAATCTGAATTCCGGTCTCCC
DNA 2: TGGTGGCTACGACGGGATT
B16: AGUAAGU (DNA:RNA)
RNA: B4 RNA with G25A, G27U, G28A, U29A, A30G
DNA 1: CAATCTGAATTCCGGTCTCCC
DNA 2: TGGTGGCTACGACGGGATT
B17: ACACCGC (DNA:RNA)
RNA: B1 RNA with A26C, C30G, G31C
DNA 1: CAATCTGAATTCCGGTCTCCC
DNA 2: TGGTGGCTACGACGGGATT
B18: CAUGGUU (DNA:RNA)
RNA: B4 RNA with G25C, G26A, G27U, U29G, A30U
DNA 1: CAATCTGAATTCCGGTCTCCC
DNA 2: TGGTGGCTACGACGGGATT
B19: GCCAUCG (DNA:RNA)
RNA: B1 RNA with A25G, A26C, A27C, C28A, C29U
DNA 1: CAATCTGAATTCCGGTCTCCC
DNA 2: TGGTGGCTACGACGGGATT
B20: GAGACAC (DNA:RNA)
RNA: B4 RNA with G26A, G28A, U29C, U31C
DNA 1: CAATCTGAATTCCGGTCTCCC
DNA 2: TGGTGGCTACGACGGGATT

Target: T1, RBFOX1 RRM RbFoxmut (Fox-RRM*)
Experiment: EMSA; HiTS-Eq, 1 nM pool, 10 min; buffer printed only for the single-RNA assays: 10 mM Tris pH 7.5, 150 mM NaCl, 3.4 mM EDTA, 0.001% NP-40, 30 C
Settings: tags: His6 N-terminal (pET28a); label: 5' 32P
Outline: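 Purified wild-type or mutant RbFox RRM at increasing concentrations was equilibrated with 1 nM of 5′-radiolabelled RNA carrying 7 randomized nucleotides for 10 min in 50 µL. Unbound RNA was separated by 8% native PAGE and sequenced. Relative association constants came from read-count changes of each RNA species compared with the control reaction, normalised to the cognate motif.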

Binder	binding signal
B1	0.101 KA relative to UGCAUGU
B2	0.0938 KA relative to UGCAUGU
B3	0.103 KA relative to UGCAUGU
B4	0.122 KA relative to UGCAUGU
B5	0.0854 KA relative to UGCAUGU
B6	0.0981 KA relative to UGCAUGU
B7	0.128 KA relative to UGCAUGU
B8	0.141 KA relative to UGCAUGU
B9	0.0915 KA relative to UGCAUGU
B10	0.125 KA relative to UGCAUGU
B11	0.0804 KA relative to UGCAUGU
B12	0.177 KA relative to UGCAUGU
B13	0.0792 KA relative to UGCAUGU
B14	0.0346 KA relative to UGCAUGU
B15	0.0546 KA relative to UGCAUGU
B16	0.125 KA relative to UGCAUGU
B17	0.122 KA relative to UGCAUGU
B18	0.131 KA relative to UGCAUGU
B19	0.0927 KA relative to UGCAUGU
B20	0.0441 KA relative to UGCAUGU
